Here are results for 24 compounds from ChEMBL document CHEMBL4888484, “Replenishing the malaria drug discovery pipeline: Screening and hit evaluation of the MMV Hit Generation Library 1 (HGL1) against asexual blood stage Plasmodium falciparum ,using a nano luciferase reporter read-out” (2022).

The whole screen tested about 150,000 compounds, of which about 540 (0.36%) showed an effect of 50% or more. Some of the results follow.

In the experiment the test system is Plasmodium falciparum. In words: Primary screen in NF54 nanoGlo assay, in single point, at 2uM, 72h; a lower Z score goes with more inhibition. Format: functional, Erythrocyte. The conditions noted are these: timepoint 72 hour.
As for `COc1ccccc1C[C@@H](C)CC(=O)NCc1noc(C)n1`, the “% Inhibition” value turned out to be 1% and the Z score is recorded as -0.1.
On to `CCN(CC)S(=O)(=O)c1c(OC)cc(C)c(Cl)c1C`, for which the “% Inhibition” value is on record as -1% and the Z score amounted to 0.12.
Consider `CCCNC(=O)N1C[C@@H]2CCCN3CCC[C@@H]([C@H]23)[C@H]1CCCC(=O)Nc1ccccc1`, for which the “% Inhibition” value turned out to be 9% and the Z score was -1.74.
Taken in the same sequence, the figures for `COc1nc(C)cc(NC2CC[C@@H](O)[C@@H](O)C2)n1` (stereo partly drawn) were -16% and 3.19.
Regarding `C=CCn1nc(C(=O)O)c2c1CC[C@H](N(C)CC1(C)COC1)C2`, the “% Inhibition” value was -4% and the Z score worked out at 0.81.
Consider `O=S(=O)(c1ccc(F)cc1)n1ccc(-c2cccc(OCc3ccc(Cl)cc3Cl)c2)n1`, for which the “% Inhibition” value was 39% and the Z score is on record as -5.03.
For the compound `Cc1noc(OCC(C)(C)ONC(=O)OC(C)(C)C)n1`, the “% Inhibition” value stood at 1% and the Z score was -0.23.
Taken in the same sequence, the figures for `CN1N=C(C(=O)NC2CCC3CCCCC3C2)CCC1=O` (stereo not drawn) were 28% and -4.02.
In the case of `CC1(c2cnccn2)NC(=O)N(CC(O)CC2CCCC2)C1=O` (stereo not drawn), the “% Inhibition” value is recorded as -3% and the Z score is 0.5.
With `CNC(=O)NCC(=O)N1CCC[C@]1(C)Cc1ccc(Cl)s1`, the “% Inhibition” value is recorded as -14% and the Z score is listed as 1.48.
For the compound `O=C(CCCc1ccccc1)Nc1cc(N2CCCC2=O)ccc1Cl`, the “% Inhibition” value is reported as -1% and the Z score is listed as 0.27.
Take `CCc1ncc2c(n1)CN(C(=O)C(C)(C)Oc1ccc3c(c1)CCC3)C2`: the “% Inhibition” value is recorded as 7% and the Z score is recorded as -1.3.
For `Cc1ccccc1CC(=O)N1CCC2(CCC(=O)N(CCc3c[nH]cn3)C2)CC1`, in that order: -14% and 1.75.
As for `C[C@H]1CN(c2ccnc3c2cnn3C)CCN1S(C)(=O)=O`, the “% Inhibition” value is 2% and the Z score is on record as -0.45.
For `O=C(CN1CCOCC1)N1CCN(Cc2ccccc2)CC1`, the “% Inhibition” value was -4% and the Z score amounted to 0.74.
Consider `CS(=O)(=O)N1CCC(OCc2nc(-c3ccncc3)no2)CC1`, for which the “% Inhibition” value was determined as 0% and the Z score is recorded as -0.03.
On to `CCn1cc(NC(=O)N2CCC[C@H]2c2ccc(F)cc2C)cn1`, for which the “% Inhibition” value is given as -12% and the Z score is recorded as 1.75.
`Cc1cc(C(=O)CN2CCCN(c3ccc(C(F)(F)F)cn3)CC2)c(C)n1C(C)C`: the “% Inhibition” value is given as -9% and the Z score amounted to 1.38.
On to `COc1cccc(NS(=O)(=O)c2ccc(-c3ccno3)cc2OC)c1`, for which the “% Inhibition” value is listed as -14% and the Z score is recorded as 2.41.
Take `C=C(C)CNC(=O)c1coc(COc2ccc3c(c2)OCO3)n1`: the “% Inhibition” value was -21% and the Z score is given as 1.86.
On to `Cc1c(F)cccc1C(=O)N1CCC[C@H](N2CCCS2(=O)=O)C1`, for which the “% Inhibition” value is -2% and the Z score is given as 0.3.
Regarding `Cc1cccnc1CN(C)C(=O)c1cc(CO)ccn1`, the “% Inhibition” value was -7% and the Z score is recorded as 0.94.
For the compound `Cc1cccc(C[C@H](C)NC(=O)c2ccc(C)n2C(F)F)n1`, the “% Inhibition” value is listed as -5% and the Z score worked out at 0.99.
Consider `C[C@H](NC(=O)C1CC(=O)C1)C(C)(F)F`, for which the “% Inhibition” value is reported as -6% and the Z score was determined as 0.74.
